# Measurements: the supplement of paper PMC10724272
# Compound: C[C@@H]1[C@H](O)[C@@H](C)/C=C/C=C/C=C/C=C/C=C/C=C/C=C/[C@H](O[C@@H]2O[C@H](C)[C@@H](O)[C@H](N)[C@@H]2O)C[C@@H]2O[C@](O)(C[C@@H](O)C[C@@H](O)[C@H](O)CC[C@@H](O)C[C@@H](O)CC(=O)O[C@H]1C)C[C@H](O)[C@H]2C(=O)O [amphotericin B]
# Assay: CLSI broth microdilution.
row,Test System,MIC
1,"Candida tropicalis isolate 378 (ERG11 copies: 8, Erg11p: Y132F, S154F (heterozygous))",0.5 mg/L [S]
2,"Candida tropicalis isolate 427 (ERG11 copies: 2, Erg11p: no key change)",0.5 mg/L [S]
3,"Candida tropicalis isolate 205 (ERG11 copies: 6, Erg11p: Y132F, S154F (heterozygous))",0.5 mg/L [S]
4,"Candida tropicalis isolate 352 (ERG11 copies: 2, Erg11p: no key change)",2 mg/L [S]
5,"Candida tropicalis isolate 374 (ERG11 copies: 2, Erg11p: no key change)",1 mg/L [S]

# Compound: OC(Cn1cncn1)(Cn1cncn1)c1ccc(F)cc1F [fluconazole]
# Assay: CLSI broth microdilution.
row,Test System,MIC
1,"Candida tropicalis isolate 149 (ERG11 copies: 8, Erg11p: Y132F, S154F (heterozygous))",512 mg/L [R]
2,"Candida tropicalis isolate 187 (ERG11 copies: 2, Erg11p: no key change)",4 µg/mL
3,"Candida tropicalis isolate 436 (ERG11 copies: 2, Erg11p: no key change)",0.5 mg/L [S]
4,"Candida tropicalis isolate 50 (ERG11 copies: 2, Erg11p: no key change)",2 mg/L [S]
5,"Candida tropicalis isolate 148 (ERG11 copies: 2, Erg11p: no key change)",4 µg/mL
6,"Candida tropicalis isolate 298 (ERG11 copies: 2, Erg11p: no key change)",4 µg/mL
7,"Candida tropicalis isolate 346 (ERG11 copies: 9, Erg11p: Y132F, S154F (heterozygous))",256 mg/L [R]
8,"Candida tropicalis isolate 78 (ERG11 copies: 8, Erg11p: Y132F, S154F (heterozygous))",256 mg/L [R]
9,"Candida tropicalis isolate 221 (ERG11 copies: 2, Erg11p: no key change)",4 µg/mL
10,"Candida tropicalis isolate 341 (ERG11 copies: 2, Erg11p: Y132F, S154F (heterozygous))",4 µg/mL
11,"Candida tropicalis isolate 37 (ERG11 copies: 2, Erg11p: no key change)",256 mg/L [R]
12,"Candida tropicalis isolate 95 (ERG11 copies: 2, Erg11p: no key change)",4 µg/mL
13,"Candida tropicalis isolate 45 (ERG11 copies: 2, Erg11p: no key change)",2 mg/L [S]
14,"Candida tropicalis isolate 404 (ERG11 copies: 2, Erg11p: no key change)",2 mg/L [S]
15,"Candida tropicalis isolate 44 (ERG11 copies: 2, Erg11p: no key change)",16 mg/L [R]
16,"Candida tropicalis isolate 286 (ERG11 copies: 2, Erg11p: no key change)",2 mg/L [S]
17,"Candida tropicalis isolate 30 (ERG11 copies: 2, Erg11p: no key change)",1 mg/L [S]
18,"Candida tropicalis isolate 285 (ERG11 copies: 2, Erg11p: no key change)",2 mg/L [S]

row,Test System,MIC
1,"Candida tropicalis isolate 28 (ERG11 copies: 2, Erg11p: no key change)",2 mg/L [S]
2,"Candida tropicalis isolate 334 (ERG11 copies: 2, Erg11p: no key change)",4 µg/mL
3,"Candida tropicalis isolate 121 (ERG11 copies: 2, Erg11p: no key change)",1 mg/L [S]
4,"Candida tropicalis isolate 287 (ERG11 copies: 2, Erg11p: no key change)",1 mg/L [S]
5,"Candida tropicalis isolate 20 (ERG11 copies: 8, Erg11p: Y132F, S154F (heterozygous))",4 µg/mL
6,"Candida tropicalis isolate 65 (ERG11 copies: 2, Erg11p: no key change)",2 mg/L [S]
7,"Candida tropicalis isolate 282 (ERG11 copies: 2, Erg11p: no key change)",2 mg/L [S]
8,"Candida tropicalis isolate 183 (ERG11 copies: 2, Erg11p: no key change)",1 mg/L [S]
9,"Candida tropicalis isolate 353 (ERG11 copies: 2, Erg11p: no key change)",2 mg/L [S]
10,"Candida tropicalis isolate 189 (ERG11 copies: 2, Erg11p: no key change)",256 mg/L [R]
11,"Candida tropicalis isolate 76 (ERG11 copies: 8, Erg11p: Y132F, S154F (heterozygous))",256 mg/L [R]
12,"Candida tropicalis isolate 440 (ERG11 copies: 5, Erg11p: Y132F, S154F (heterozygous))",256 mg/L [R]
13,"Candida tropicalis isolate 405 (ERG11 copies: 2, Erg11p: Y132F, S154F (homozygous))",64 mg/L [R]
14,"Candida tropicalis isolate 378 (ERG11 copies: 8, Erg11p: Y132F, S154F (heterozygous))",512 mg/L [R]
15,"Candida tropicalis isolate 427 (ERG11 copies: 2, Erg11p: no key change)",1 mg/L [S]
16,"Candida tropicalis isolate 205 (ERG11 copies: 6, Erg11p: Y132F, S154F (heterozygous))",256 mg/L [R]
17,"Candida tropicalis isolate 352 (ERG11 copies: 2, Erg11p: no key change)",2 mg/L [S]
18,"Candida tropicalis isolate 374 (ERG11 copies: 2, Erg11p: no key change)",2 mg/L [S]

# MIC of invasive clinical C. tropicalis isolates, CLSI broth microdilution (fluconazole 0.12-256 mg/L, up to 1,024 for the azole-resistant cluster and its neighbour group; other ranges not stated); higher = less susceptible. Call: susceptible or wild type [S] / resistant or non-wild type [R] by CLSI breakpoints or cut-offs; intermediate and dose-dependent carry no call. '<=' and '>=' at the end values are inferred; the source marks only some of them. Isolates are numbered anew.
